Measurements taken from the supplement of paper PMC11417369.
± gives the standard deviation of the averaged measurements. This is one part of the list.

Test system: PfAP2-LT AP2 domain (GST-tagged)
Assay: gcPBM binding intensity (ln(normalized median fluorescence intensity)); higher = stronger DNA binding
Procedure, shortened: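 The binding buffer was 1× PBS containing 1% milk, 0.2 mg/ml BSA, 0.5% salmon testes DNA and 0.03% Triton X-100. In it, GST-tagged P. falciparum DNA-binding domains expressed in E. coli were applied for 1 h to an Agilent 4 × 180k array of primer-extended double-stranded 36-bp intergenic genomic probes plus negative controls. Binding intensity, read with Alexa488 anti-GST antibody and a 488 nm scan, is the highest Masliner-normalised natural-log median intensity across replicate spots of either probe orientation.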

Sequence	gcPBM binding intensity (ln)
TTTTTATTGTTATAGTTATAATATATTATTTGATTA [XGTACX_negctrl_site27]	8.61 ± 0.42
TTTTTTTTTTTTGTAACACACAATAATATAACATTA [CACACA_site3411]	8.62 ± 0.5
TTATTAAGTAAATCACATTTAATTTTTTTTTTTTTT [CACACA_negctrl_site1280]	8.2 ± 0.4
CACATATAAATATTAACACACATAATGAGTTATATA [CACACA_site7316]	8.89 ± 0.41
AAGAAAAAAAAAAAAAGTACATGCAATATGGATCTT [XGTACX_site3106]	8.93 ± 0.42
TTATACCATATTTATAGTACGTACAAATAAATCAAT [XGTACX_site4975]	8.72 ± 0.28
CATATATAACAATTCTCACACATAAAAAAAAAAAAT [CACACA_site4564]	8.85 ± 0.52
ATAAAATGATAAATTTGTACACAAAAAAAAAAAAAA [XGTACX_site964]	8.71 ± 0.47
AAAATAAAATATTTCTGTACTTATAACTATTCTATA [XGTACX_site8007]	8.58 ± 0.38
GGGTATACAAATAAACGTACAAACTCATAAAAAAAA [XGTACX_site3191]	8.87 ± 0.52
ATTTACATAAATTGCATATATCGATGTAAATAAATA [CACACA_negctrl_site1150]	8.66 ± 0.4
TCTTTTTAAACTAATAGTACATATATATTAATAAAT [XGTACX_site4217]	8.34 ± 0.48
ATATATATATATATATGTACATATATTTATTTATTG [XGTACX_site6267]	9.49 ± 0.11
CATTTATTTTTGTTCTGTACATAAAGATGAACAAAA [XGTACX_site6797]	8.25 ± 0.31
TTAAAAAAATATAATACACACCAAAAATATGCACAT [CACACA_site5209]	9.03 ± 0.38
TAATAATTTATAATAGTGCATTTGATTTTAAAAATA	8.26 ± 0.47
TTTTTATGGTAAATAAAAATATCTCCCTCCTTAATT [CACACA_negctrl_site1352]	8.47 ± 0.25
CATATAAAAATGTGCACACACACACCCATATATATT [CACACA_site1526]	9.95 ± 0.14
AAAATTAATAAATAAACACACATATATATATATATA [CACACA_site2598]	9.61 ± 0.22
AATATCCACATTAGGAGTACACAGCTAACTGTTTGA [XGTACX_site3357]	8.82 ± 0.35
TTGATTACACTGAAGTGTACATATATATATATATAT [XGTACX_site3532]	9.755 ± 0.092
AAATAATAAAAAAAATGTACACGTAAATATTATATT [XGTACX_site8125]	8.89 ± 0.43

Sequence	gcPBM binding intensity (ln)
AAAAAAAAAAGAAACACACACATTTGTATATAATAT [CACACA_site2078]	9.31 ± 0.4
TTTTATATAAAATCGTGTACATACCATTTCCTATTA [XGTACX_site5159]	8.69 ± 0.5
AAATAAATCTTATGCACACAAATAATTAATTAAACA [CACACA_site1693]	8.88 ± 0.46
TATTTTTTTCTTACATACTAATTTGGTACTCACATA [TGCATGCA_negctrl_site81]	8.74 ± 0.51
AGAGTTCTCATATGCACACAAAAAACTTTCATTTAT [CACACA_site45]	8.9 ± 0.33
TAAATAAGCACATACACACATACATACATACATAAA [CACACA_site4017]	9.44 ± 0.38
AACCCCGTGGAAATATGTACATATAAATATATAAAT [XGTACX_site2094]	9.18 ± 0.43
GTGAAATATGCAAACACACACGAGAAAAATGTATAT [CACACA_site7488]	9.61 ± 0.38
TTTTTGCCATATTACACACACACATGTAAACCCCCT [CACACA_site1647]	9.87 ± 0.099
CAAAACAAAACGTATGCACACAATTAATATATTAAA [CACACA_site3405]	9.1 ± 0.37
ATAAATAAGATATATACACACATATCTATACATATT [CACACA_site6369]	8.99 ± 0.37
AATCCACTTTTTTATGTTATACAATATAAATTAAAT [XGTACX_negctrl_site446]	8.48 ± 0.32
GGCTAAAAGGGGCACACACACAAAAAAAAAAAAAAA [CACACA_site3288]	9.52 ± 0.72
ATTTAAGAAAAAAGTTGTACTTATTTATTTTTATTT [XGTACX_site5561]	8.45 ± 0.59
ATATATTATTTCTAGTGTACATACCCATATATAATA [XGTACX_site8902]	8.77 ± 0.47
TAGATAAACAAGAAATGTACAAACGTAAATATGTTC [XGTACX_site2373]	9.11 ± 0.45
ATTGAATTCCAACTGGTGCACCAGTAAGATTGAAAA [GTGCAC_site9895]	8.59 ± 0.47
ATATTTTTTTTTTCGTGTACGCATAAATATATCTAA [XGTACX_site3360]	8.69 ± 0.45
TAAAAAATAAATATATGTACATATTTATTTTTTTTT [XGTACX_site850]	8.38 ± 0.49
AAATTCATAAAAATATTTTATAATTATATATAGAAT [TGCATGCA_negctrl_site343]	8.35 ± 0.5
GGGTTTTTTATTAATACATGCATGGAAACGCACTAT [TGCATGCA_site1000]	9.05 ± 0.27
AAGAAAAACAATGAGATAAAGAAGAGAAAATATGTC [TGCATGCA_negctrl_site415]	9.08 ± 0.59

Sequence	gcPBM binding intensity (ln)
ATATATATATAATTTGTACACACAAATATGCATATA [CACACA_site9136]	9.04 ± 0.35
ATAAATATGTAAAAAACATGCAAAAAATTAAAGACA [TGCATGCA_site912]	9.11 ± 0.48
AACGCACATATATTTATGTATATATATATATATATA [GTGCAC_negctrl_site478]	9.88 ± 0.42
GGAAACAAAAAATATATACACACTAAACATAAAAAA [CACACA_site20]	9.11 ± 0.52
TCATAGTAGAAACACACACACACACCCATATATATA [CACACA_site1737]	10.1 ± 0.23
TAAAAAAAAAGAAGCTGTACTAAAAAATTTATATTA [XGTACX_site7408]	8.34 ± 0.57
TTATTACATAACAATATACACACTATTGATTAAAGA [CACACA_site2933]	8.68 ± 0.39
TTATTAAATAAAATCATGCACACAATATATATTTTA [CACACA_site2496]	8.73 ± 0.48
GTTATTAAACAGAAAAGTACATATGTATATTAAAAT [XGTACX_site3724]	9.07 ± 0.43
AAGAAAAAAGTTATTAGTACACATTATAATAAAAAG [XGTACX_site3527]	8.76 ± 0.64
AATACTAAAAAGTGTACACATACATAAAAAATTGCA [CACACA_site5620]	9.08 ± 0.51
TATTGATTTATAAACACACACTCGAAGATGTTTAAC [CACACA_site4760]	8.86 ± 0.42
TAATTTTCTTTTTATCGTTTTTTTTTTTTTTTTTTT [XGTACX_negctrl_site432]	8.38 ± 0.6
TATATATATGTAAATCGTACAAATTATATATATCAT [XGTACX_site2821]	8.79 ± 0.36
TATATCTCATAGTATACACACACACCCACCCACATA [CACACA_site8513]	9.9 ± 0.23
CATTATGTTGTAAATACACACATACATATACATACA [CACACA_site8143]	9.06 ± 0.3
AGTGGAATGTATGATTTTCATTCCTTAAAATTTTAA [GTGCAC_negctrl_site521]	8.45 ± 0.35
ACAAAAAAAATAAGCACACATATATATATATATATA [CACACA_site816]	10.1 ± 0.38
ATATATATATATAAGCGTACGCGTAGTTAAATTAAT [XGTACX_site7693]	9.23 ± 0.38
TATGTTATATTGGACACACACAATAAACATTATGTA [CACACA_site1657]	9.04 ± 0.38
TAAAATATTTCAAAGGTGCAATGATAATTTAAGACG [GTGCAC_site9609]	8.66 ± 0.42
AAATGAAAAATAAGGAAAAAAAAAAAAAAAAAAAAA [CACACA_negctrl_site1715]	8.33 ± 0.37

Sequence	gcPBM binding intensity (ln)
ATATTGACAGGAAAAATTTTCTTTGAATCTTTAAAA [CACACA_negctrl_site1191]	8.13 ± 0.42
TATTCAATACTTAATGCACACAATAAAAAAAATATG [CACACA_site2467]	8.88 ± 0.46
ACGATAACATTTTTACGTACATATATTTTCACGGAG [XGTACX_site8764]	8.79 ± 0.48
TACATGATAAGATGTAGTACATAAAAGAATAAATTA [XGTACX_site787]	8.94 ± 0.55
TTTTCAAAAATATATACACACATGCATATTACGGTG [CACACA_site775]	8.98 ± 0.43
CCACTAATTATGTGCACACAAATTAAAGGTCTACAA [CACACA_site4259]	9.46 ± 0.32
GAAATAATTTTTATTTGTACACACATACATATATAT [XGTACX_site1862]	9.3 ± 0.55
AAATTTTATAAAGGAACACACATTTTTTTTTTTTCT [CACACA_site2368]	8.5 ± 0.41
TTATTCATTTCGAAAAGTACAAATTCTGTTTATTAT [XGTACX_site6892]	8.47 ± 0.48
ATAATATTTATAAATTGTACTAATGTTCAATAATTA [XGTACX_site7284]	8.35 ± 0.51
TTTTGTCGGAAATCGGATAAGAAGAAAAAAAATAAT [GTGCAC_negctrl_site594]	8.56 ± 0.48
AAAAAAAAAAAATACGTGCACTATGATATATTATAT	8.88 ± 0.47
AAAAAAAAAAAAAGTACACACATACATATAAATATA [CACACA_site8533]	9.01 ± 0.36
TTCACTCCATATTATACACACACACTAATGAAAAAA [CACACA_site8991]	9.35 ± 0.28
AGTGAATATCTAAAATGTACATAAATAAATAAATAA [XGTACX_site8293]	8.8 ± 0.54
CGTTATATCAAAGGAGTGCATTATGAATACGTTTTA [GTGCAC_site9837]	8.66 ± 0.37
TTAAAATTTTTCAAAAGTACATAAATAATATATATT [XGTACX_site4694]	8.23 ± 0.49
AATATATTATATATATGTACATAATGTGTAATACCT [XGTACX_site2845]	8.93 ± 0.38
TTTTTTTTTGTTAAAGTGCATATATTAAATTTTCCT [GTGCAC_site9677]	8.43 ± 0.4
GGAAAAAAATATAAAAGTACTTTTTATTTATTTTAT [XGTACX_site7418]	8.4 ± 0.51
TTTATTTGTTCATGCGTGCACTTGATAACAATGTAC [GTGCAC_site9561]	8.93 ± 0.4
AAAAAAAATTCATATTGTACTTTTAAATTAAAGAAA [XGTACX_site4521]	8.07 ± 0.51
